In PubChem BioAssay AID1347430 (National Center for Advancing Translational Sciences (NCATS), 2020):
The whole screen tested about 91,000 compounds, of which about 130 (0.14%) were called active. Inconclusive means that the source gave no clear call. Such entries were picked first, then a sample of the others. Calls come from the whole dose curve; as a rule, active = well fitted inhibition curve with a large enough effect; inconclusive = small, poorly fitted or top-dose-only effect; inactive = flat fitted curve, though single readings scatter. A potency beside an inconclusive call is a rough fit, not a confirmed value.
% is set by controls: 0 for no effect and ±100 for the full control effect; potency is the fitted concentration of half-maximal effect; tags give direction and shape of the fitted curve.
Note: nearly all actives have a fitted effect of over 65% in size.

Each compound was assayed on Uracil-DNA glycosylase (assay: Primary qHTS assay for inhibitors of Activation Induced Cytidine Deaminase (AID): UDG Counterscreen signal). Details: FRET deamination/UDG coupled assay, UDG read, 4 h; activity change, negative = inhibition: at 115 µM (top of the series).
`COc1ccc(NC(=O)CN2CCCN(Cc3ccc(Cl)cc3)S2(=O)=O)cc1Cl` was tested, and the Potency was inconclusive: 79.4 µM [inhibitor, partial curve, poor fit].
`CC(C)(C)C1CCC(OC(=O)c2c(F)cccc2Cl)CC1` (centres undefined) was tested, and the “activity change, negative = inhibition” value was inactive: -11.4%.
`CCCn1c(SCc2nc(-c3ccc(OC)c(OC)c3)no2)nnc1-c1ccccc1` was tested, and the Potency was inconclusive: 79.4 µM [inhibitor, partial curve, poor fit].
With `CC1CCC(NC(=O)/C=C/c2ccc(C(=O)NC3CC3)cc2)CC1` (centres undefined) the “activity change, negative = inhibition” value was inactive: -3.82%.
`CCOC(=O)C1CCN(CCC(=O)Nc2ccc(Br)c(C)c2)CC1` was tested, and the Potency was inconclusive: 100 µM [inhibitor, single point].
For `Cc1ccc(CN(C(=O)Nc2cccc(Cl)c2)c2ccccn2)cc1`, the Potency was inconclusive: 89.1 µM [inhibitor, single point].
`COc1ccc(CNC(=O)CCC(=O)N2CC3CCCN3c3ccccc32)cc1` (centres undefined) was tested, and the Potency was inconclusive: 89.1 µM [inhibitor, single point].
For `CC(C)c1nnc(Sc2nc(C(F)(F)F)nc3ccccc23)n1C1CC1`, the “activity change, negative = inhibition” value was inactive: -1.32%.
In the case of `COc1ccc(OC)c(NC(=O)N2CC3CCCN3c3ccccc32)c1` (centres undefined), the Potency is reported as inconclusive: 56.2 µM [inhibitor, partial curve, poor fit].
For `CCOc1ccc(N(CC)S(=O)(=O)N2CCCC(C(=O)Nc3ccc(OC)c(Cl)c3)C2)cc1` (centres undefined), the Potency was inconclusive: 56.2 µM [inhibitor, single point].
With `Cc1c(Cl)ccc2sc(N3CCN(C(=O)C4CC4)CC3)nc12` the Potency was inconclusive: 89.1 µM [inhibitor, partial curve, poor fit].
In the case of `CC(=O)N1CCc2c(sc3c2c(=O)n(-c2ccc(C)cc2)c(=O)n3Cc2ccccc2C)C1`, the Potency is reported as inconclusive: 89.1 µM [inhibitor, partial curve, poor fit].
`COc1ccc(-c2noc(CC(=O)Nc3cc(OC)ccc3OC)n2)cc1` was tested, and the Potency was inconclusive: 89.1 µM [inhibitor, single point].
With `CCn1c(CC23CC4CC(CC(C4)C2)C3)nnc1SCc1ccc(F)cc1` the “activity change, negative = inhibition” value was inactive: -15.2%.
`O=S(=O)(NCC(c1ccco1)N1CCN(c2ccccc2)CC1)c1cc(F)ccc1F` (centres undefined) was tested, and the Potency was inconclusive: 89.1 µM [inhibitor, single point].
For `CCOc1ccc(N(Cc2ccccc2)C(=O)c2nc(SC)ncc2Cl)cc1`, the Potency was inconclusive: 89.1 µM [inhibitor, partial curve, poor fit].
In the case of `Cc1nn(C)c2c1c(C(F)(F)F)cc(=O)n2Cc1ccc(Br)cc1F`, the Potency is reported as inconclusive: 79.4 µM [inhibitor, single point].
`Cn1c(CN2CCN(c3ccccc3NS(C)(=O)=O)CC2)nc2ccccc21` was tested, and the Potency was inconclusive: 100 µM [inhibitor, single point].
`CCCCOC(=O)COc1ccc2c(=O)c(-c3ccccc3OC)coc2c1` was tested, and the “activity change, negative = inhibition” value was inactive: -5.67%.
`COc1ccc(Cl)cc1NC(=O)N1CCN(Cc2cc(=O)n3nc(-c4ccccc4)sc3n2)CC1` was tested, and the Potency was inconclusive: 89.1 µM [inhibitor, single point].
`COCCN(Cc1ccco1)C(=O)c1cc2c(=O)[nH]c3ccc(C)cc3c2s1` was tested, and the Potency was inconclusive: 89.1 µM [inhibitor, single point].
For `CC(C)NC[C@H](O)c1ccc(O)c(O)c1`, the Potency was “inactive”.
With `Cc1oc(-c2ccccc2F)nc1CN1CCC(C(=O)NCCc2ccccc2)CC1` the Potency was inconclusive: 89.1 µM [inhibitor, single point].
With `CCOC(=O)c1cccc(NC(=O)c2oc3c(c2C)-c2nn(CC)cc2CC3)c1` the Potency was inconclusive: 39.8 µM [inhibitor, single point].
In the case of `Cc1ccc(C)c(N2CCN(CCCNC(=O)c3cnn(-c4ccc(F)cc4)c3C3CCN(C(=O)OC(C)(C)C)CC3)CC2)c1`, the “activity change, negative = inhibition” value is reported as inactive: -28.3%.
In the case of `OCCCn1c(-c2ccc(F)cc2)csc1=Nc1ccc(F)cc1`, the Potency is reported as inconclusive: 89.1 µM [inhibitor, single point].
`COc1ccccc1CNC(=O)CSc1ccc(-c2sc(-c3ccccc3)nc2C)nn1` was tested, and the Potency was inconclusive: 89.1 µM [inhibitor, partial curve, poor fit].
`COc1ccccc1C(=O)N1CCN(c2oc(-c3cccc(C)c3)nc2C#N)CC1` was tested, and the Potency was inconclusive: 89.1 µM [inhibitor, single point].
`COc1ccc(F)cc1S(=O)(=O)Nc1cccc(-c2ccc(N3CCC(C)CC3)nn2)c1` was tested, and the Potency was inconclusive: 89.1 µM [inhibitor, single point].
With `COc1ccc(Nc2ncnc3c2nc2n3CCCCC2)cc1` the “activity change, negative = inhibition” value was inactive: -5.77%.
With `COc1ccc(CCNC(=O)c2c(C)oc3ncn(C)c(=O)c23)c(OC)c1` the Potency was inconclusive: 89.1 µM [inhibitor, single point].
In the case of `Cc1ccc(NC(NC(=O)C(C)(C)C)C(Cl)(Cl)Cl)cc1` (centres undefined), the “activity change, negative = inhibition” value is reported as inactive: -8.01%.
With `COc1ccc(-c2c(C)c3cc(O)ccc3oc2=O)cc1OC` the Potency was inconclusive: 50.1 µM [inhibitor, partial curve, poor fit].
In the case of `Cc1c(C(=O)N2CCOCC2)oc2c1-c1nn(CC(=O)NCc3cccc(Cl)c3)cc1CC2`, the Potency is reported as inconclusive: 89.1 µM [inhibitor, partial curve, poor fit].
For `CC(C)(C)OC(=O)N1CCC(c2c(C(=O)NCCc3ccccc3)cnn2-c2ccc(F)cc2F)CC1`, the “activity change, negative = inhibition” value was inactive: 50.8%.
In the case of `Cc1ccc(CCNC(=O)c2c(C)oc3ncn(CC(C)C)c(=O)c23)cc1`, the Potency is reported as inconclusive: 89.1 µM [inhibitor, partial curve, poor fit].
For `COc1ccc(OC)c(S(=O)(=O)Nc2cccc(-c3ccc(N4CCCCC4)nn3)c2)c1`, the Potency was inconclusive: 79.4 µM [inhibitor, partial curve, poor fit].
In the case of `O=C1C(=C(c2ccccc2)c2ccccc2)C(Cl)C(Cl)(Cl)c2ccccc21` (centres undefined), the Potency is reported as inconclusive: 22.4 µM [inhibitor, full curve, poor fit].
For `Cc1nc2ccc(NS(=O)(=O)c3ccc(C)c(C)c3)cc2s1`, the Potency was inconclusive: 89.1 µM [inhibitor, single point].
`CCOc1cccc2cc(S(=O)(=O)c3ccccc3F)c(=O)oc12` was tested, and the Potency was inconclusive: 89.1 µM [inhibitor, single point].
`COCCNc1nc(NCc2cccc(Cl)c2)c2cnn(C)c2n1` was tested, and the Potency was inconclusive: 100 µM [inhibitor, single point].
`CN(C)S(=O)(=O)c1cccc(NC(=O)c2ccccc2Oc2ccccc2)c1` was tested, and the “activity change, negative = inhibition” value was inactive: -14.7%.
With `O=[N+]([O-])c1cc(-c2nc(-c3ccccc3)no2)ccc1NC1CCCCC1` the Potency was inconclusive: 89.1 µM [inhibitor, single point].
`COc1ccc(C2c3cc(OC)c(OC)cc3CC(=O)N2c2ccc(C)c(F)c2)cc1` (centres undefined) was tested, and the Potency was inconclusive: 89.1 µM [inhibitor, single point].
For `COc1ccc(C(=O)NCC(c2ccc(N(C)C)cc2)N2CCc3ccccc32)cc1OC` (centres undefined), the Potency was inconclusive: 79.4 µM [inhibitor, partial curve, poor fit].
For `NCCC/C(=N/O)c1cccs1`, the Potency was inconclusive: 56.2 µM [inhibitor, partial curve, poor fit].
With `c1ccc(-n2nnnc2CNc2cccc3c2CCCC3)cc1` the “activity change, negative = inhibition” value was inactive: -0.234%.
`Cc1ccc(C)c(S(=O)(=O)c2nnn3c2nc(NC2CCCCC2)c2sccc23)c1` was tested, and the Potency was inconclusive: 89.1 µM [inhibitor, partial curve, poor fit].
In the case of `O=C(Nc1ccc(Cl)cc1F)c1ccc(-c2ccccc2)cc1`, the “activity change, negative = inhibition” value is reported as inactive: 0.465%.
`COc1ccc(Nc2nc3ccccc3nc2NS(=O)(=O)c2ccc(NC(C)=O)cc2)cc1OC` was tested, and the “activity change, negative = inhibition” value was inactive: -2.85%.
`Cc1ccc(CN(Cc2ccco2)C(=O)c2ccc(OCC(C)C)cc2)cc1` was tested, and the Potency was inconclusive: 79.4 µM [inhibitor, partial curve, poor fit].
`Cc1ccc(C)c(N2CCN(C(=O)c3cc4c(=O)n(Cc5ccccc5)ccc4nc3C)CC2)c1` was tested, and the Potency was inconclusive: 56.2 µM [inhibitor, partial curve, poor fit].
With `CCCCOc1ccc(C2=NC(c3ccncc3)=Nc3ccc(OCC)cc3N2)cc1` the Potency was inconclusive: 89.1 µM [inhibitor, partial curve, poor fit].
In the case of `Cc1nn(-c2ccc(F)cc2)c(-n2cccc2)c1C(=O)NCCc1ccc(Cl)cc1`, the Potency is reported as inconclusive: 2.82 µM [inhibitor, full curve, poor fit].
In the case of `COc1cccc(CNC(=O)c2ccc(-c3nc(COc4ccccc4)c(C)o3)cc2)c1`, the Potency is reported as inconclusive: 89.1 µM [inhibitor, single point].
With `CCOc1ccc(C2CC(c3c(O)n(C4CCCCC4)c(=O)[nH]c3=O)=Nc3ccccc3S2)cc1` (centres undefined) the Potency was inconclusive: 79.4 µM [inhibitor, partial curve, poor fit].
With `COc1ccc(-c2nc(SCCOc3ccccc3Cl)n3[nH]c(=O)cc3n2)cc1` the Potency was inconclusive: 100 µM [inhibitor, single point].
`CCN1C(C(=O)c2ccccc2)=C(OC(=O)c2ccccc2OC)c2ccccc2S1(=O)=O` was tested, and the “activity change, negative = inhibition” value was inactive: 4.89%.
For `CCN(CC)CCNC(=O)c1ccc2c(=O)n3nc(Nc4ccccc4OC)sc3nc2c1`, the “activity change, negative = inhibition” value was inactive: 1.72%.
In the case of `Cc1ccc(-n2cnnn2)cc1NC(=O)c1sccc1C`, the “activity change, negative = inhibition” value is reported as inactive: -0.716%.
With `CC1CCc2c(sc(NC(=O)C3c4ccccc4Oc4ccccc43)c2C(=O)OC(C)C)C1` (centres undefined) the Potency was inconclusive: 89.1 µM [inhibitor, single point].
With `COc1ccccc1Nc1nn2c(=O)c3ccc(C(=O)N4CCCC(C)C4)cc3nc2s1` (centres undefined) the Potency was inconclusive: 89.1 µM [inhibitor, single point].
With `Cc1ccc(-c2nc3ccc(C)cc3c(C(=O)O)c2C)cc1` the “activity change, negative = inhibition” value was inactive: 9.56%.
In the case of `CCOC(=O)c1sc(NC(=O)C2c3ccccc3Oc3ccccc32)c(C(=O)OCC)c1C`, the Potency is reported as inconclusive: 89.1 µM [inhibitor, partial curve, poor fit].
